The results in this text go back to the BET-seq Pho4 binding data (Le et al. 2018).

Some of the results follow. The energies were worked out here from pooled read counts, against the library average; single values are noisy.

The target in this assay is T1, Pho4 (S. cerevisiae) (UniProt P07270).
T1 sequence: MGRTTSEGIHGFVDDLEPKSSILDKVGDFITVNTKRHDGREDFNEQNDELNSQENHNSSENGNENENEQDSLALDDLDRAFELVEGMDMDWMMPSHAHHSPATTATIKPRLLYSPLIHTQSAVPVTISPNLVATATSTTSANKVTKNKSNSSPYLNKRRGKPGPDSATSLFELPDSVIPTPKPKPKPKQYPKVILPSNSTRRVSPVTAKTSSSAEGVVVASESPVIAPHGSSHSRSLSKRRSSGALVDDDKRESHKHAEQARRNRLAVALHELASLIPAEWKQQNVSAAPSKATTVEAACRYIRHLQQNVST
Briefly: relative binding free energy (BET-seq); higher = weaker binding. As to conditions: reference: library average.
For the sequence TATTGCACGTGTAGTG, the “relative binding free energy” value was determined as 0.08 kcal/mol.

Regarding AATAACACGTGGGGTC, the “relative binding free energy” value was -0.07 kcal/mol.

On to TCGTTCACGTGTTGTC, for which the “relative binding free energy” value amounted to 0.42 kcal/mol.

As for GGATACACGTGGAAGG, the “relative binding free energy” value turned out to be 0.16 kcal/mol.

Consider GAGCACACGTGGGGTT, for which the “relative binding free energy” value was 0.01 kcal/mol.

As for TCTTGCACGTGGGAGA, the “relative binding free energy” value worked out at 0 kcal/mol.

Consider TATGGCACGTGGCTTA, for which the “relative binding free energy” value is -0.18 kcal/mol.

Take TTCAGCACGTGTTTAA: the “relative binding free energy” value is -0.06 kcal/mol.

ATAATCACGTGGGGGA: the “relative binding free energy” value is -0.13 kcal/mol.

As for AGCTGCACGTGTGTTA, the “relative binding free energy” value was -0.09 kcal/mol.

On to ATTATCACGTGTAGCT, for which the “relative binding free energy” value was 0.16 kcal/mol.

Turning to TCTGACACGTGGTTTA, the “relative binding free energy” value is -0.02 kcal/mol.

Consider ATGGCCACGTGAGGTA, for which the “relative binding free energy” value stood at 0.11 kcal/mol.

As for GTTGCCACGTGATATT, the “relative binding free energy” value was 0 kcal/mol.

Regarding AATTGCACGTGTGGTG, the “relative binding free energy” value amounted to 0.06 kcal/mol.

On to AAGGTCACGTGCGAGT, for which the “relative binding free energy” value was 0.13 kcal/mol.

GTTTCCACGTGTTTAT: the “relative binding free energy” value stood at 0.1 kcal/mol.

TTCGGCACGTGGTTCA: the “relative binding free energy” value was -0.08 kcal/mol.

On to ATAGTCACGTGAAAGT, for which the “relative binding free energy” value turned out to be 0.23 kcal/mol.

As for GGTTCCACGTGTGTGC, the “relative binding free energy” value stood at 0.08 kcal/mol.

With TATGACACGTGTACTT, the “relative binding free energy” value was 0.09 kcal/mol.

In the case of GGAGGCACGTGGGTAG, the “relative binding free energy” value was -0.25 kcal/mol.

For the sequence GAAGTCACGTGGTTTA, the “relative binding free energy” value was -0.02 kcal/mol.

With AATTTCACGTGTTATT, the “relative binding free energy” value stood at 0.32 kcal/mol.

With TGCGTCACGTGGATTT, the “relative binding free energy” value was found to be 0.22 kcal/mol.

As to GATCACACGTGATGTT, the “relative binding free energy” value is 0.29 kcal/mol.

For the sequence GAAGGCACGTGTAATA, the “relative binding free energy” value worked out at 0.21 kcal/mol.

As to AGGCGCACGTGGAGGT, the “relative binding free energy” value was -0.06 kcal/mol.

With CTGGGCACGTGGGGAC, the “relative binding free energy” value was -0.19 kcal/mol.

Consider TTAAACACGTGAAGTG, for which the “relative binding free energy” value came to 0.13 kcal/mol.

CTTTGCACGTGTTAGG: the “relative binding free energy” value is 0.02 kcal/mol.

Regarding GGATGCACGTGGAGGA, the “relative binding free energy” value is -0.01 kcal/mol.

Turning to GGGGTCACGTGACGAT, the “relative binding free energy” value is 0.13 kcal/mol.

As for GCTCACACGTGGTGTG, the “relative binding free energy” value is 0.02 kcal/mol.

GCAGTCACGTGATTTG: the “relative binding free energy” value amounted to 0.26 kcal/mol.

GGTGGCACGTGTTGCA: the “relative binding free energy” value is -0.01 kcal/mol.

Regarding TAGTGCACGTGAATTG, the “relative binding free energy” value came to 0.19 kcal/mol.

CGTTGCACGTGAGAAT: the “relative binding free energy” value came out at 0.31 kcal/mol.

With CCGATCACGTGTTTGT, the “relative binding free energy” value came to 0.21 kcal/mol.

On to TATTGCACGTGGAAGT, for which the “relative binding free energy” value is 0.08 kcal/mol.

Regarding CTGGGCACGTGTCTGT, the “relative binding free energy” value was -0.13 kcal/mol.

Turning to TGTGACACGTGTTCAG, the “relative binding free energy” value amounted to 0.12 kcal/mol.

On to TGAGGCACGTGTAAAT, for which the “relative binding free energy” value was found to be 0.05 kcal/mol.

In the case of AAGGTCACGTGAGGAA, the “relative binding free energy” value turned out to be 0.3 kcal/mol.

Take AGGGTCACGTGTTTCT: the “relative binding free energy” value is 0.09 kcal/mol.

As to ATGTGCACGTGTACTG, the “relative binding free energy” value was -0.08 kcal/mol.

GTTGACACGTGTTGGT: the “relative binding free energy” value was found to be 0.02 kcal/mol.

On to GTGTCCACGTGATAAG, for which the “relative binding free energy” value was 0.32 kcal/mol.

Take TCTATCACGTGTATTT: the “relative binding free energy” value was 0.14 kcal/mol.

TGTTACACGTGATTAG: the “relative binding free energy” value is 0.11 kcal/mol.

With GATAGCACGTGGTCTG, the “relative binding free energy” value was -0.18 kcal/mol.

For the sequence CCAGGCACGTGTGGGT, the “relative binding free energy” value amounted to 0.01 kcal/mol.

For the sequence GTTGGCACGTGCTAAG, the “relative binding free energy” value is -0.07 kcal/mol.

For CTTGGCACGTGGTAGC, the “relative binding free energy” value was -0.16 kcal/mol.

On to GATATCACGTGAGGAG, for which the “relative binding free energy” value turned out to be 0.39 kcal/mol.

For GTGGTCACGTGGAATG, the “relative binding free energy” value turned out to be 0.2 kcal/mol.

On to GACAGCACGTGTGGTT, for which the “relative binding free energy” value stood at 0.02 kcal/mol.

As to ATTGGCACGTGTTGTA, the “relative binding free energy” value is -0.12 kcal/mol.

TTCTGCACGTGTTATG: the “relative binding free energy” value is -0.11 kcal/mol.

Turning to AGCAGCACGTGAAGGT, the “relative binding free energy” value came to 0.19 kcal/mol.

Consider GTATTCACGTGGGGTA, for which the “relative binding free energy” value turned out to be 0.2 kcal/mol.

In the case of AGTTCCACGTGGGTTT, the “relative binding free energy” value is -0.03 kcal/mol.

Regarding GGATGCACGTGTGAGA, the “relative binding free energy” value was determined as 0.09 kcal/mol.

TTGGGCACGTGGTGAT: the “relative binding free energy” value was -0.11 kcal/mol.

In the case of TGTGACACGTGTTGTA, the “relative binding free energy” value came to 0.04 kcal/mol.

For GTGCTCACGTGGTTTC, the “relative binding free energy” value stood at 0.34 kcal/mol.

For the sequence TTACGCACGTGCTGGT, the “relative binding free energy” value is -0.1 kcal/mol.

With TTAGTCACGTGGTTAA, the “relative binding free energy” value stood at 0.08 kcal/mol.

For the sequence GAGGACACGTGCAGGG, the “relative binding free energy” value was 0.14 kcal/mol.

As for TTAGTCACGTGTCAGG, the “relative binding free energy” value worked out at 0.09 kcal/mol.

On to TGGTACACGTGGTAAT, for which the “relative binding free energy” value was found to be 0.02 kcal/mol.

TGTTACACGTGCTGTG: the “relative binding free energy” value stood at 0.05 kcal/mol.

Regarding ATAGGCACGTGAATCG, the “relative binding free energy” value stood at 0.15 kcal/mol.

With TGTGTCACGTGCTTGT, the “relative binding free energy” value came out at 0.03 kcal/mol.

TCGGGCACGTGTTGGT: the “relative binding free energy” value is -0.05 kcal/mol.

As for TAAGGCACGTGAGTAA, the “relative binding free energy” value stood at 0.14 kcal/mol.

Take GGAATCACGTGTGTCT: the “relative binding free energy” value worked out at 0.14 kcal/mol.

As for GGTCGCACGTGTGGCA, the “relative binding free energy” value turned out to be 0.07 kcal/mol.

On to AGCTACACGTGGGTTA, for which the “relative binding free energy” value is 0.04 kcal/mol.

In the case of GGGTGCACGTGGCTGA, the “relative binding free energy” value is -0.13 kcal/mol.

GGCTACACGTGTAGGA: the “relative binding free energy” value was determined as 0.13 kcal/mol.

Regarding GGGTTCACGTGGCCGG, the “relative binding free energy” value was found to be 0.28 kcal/mol.

Regarding TGGTTCACGTGGCTCA, the “relative binding free energy” value was found to be 0.26 kcal/mol.

In the case of GTATGCACGTGTTAGC, the “relative binding free energy” value was 0.1 kcal/mol.

As for GGGCTCACGTGATGCG, the “relative binding free energy” value is 0.33 kcal/mol.

For the sequence TAGAGCACGTGTAGCG, the “relative binding free energy” value is -0.09 kcal/mol.

Take TGGCGCACGTGGATTG: the “relative binding free energy” value was -0.06 kcal/mol.

As to TCAATCACGTGAGTTG, the “relative binding free energy” value came to 0.27 kcal/mol.

With TGGTACACGTGTATCT, the “relative binding free energy” value is -0.02 kcal/mol.

With GAAAACACGTGGGGAT, the “relative binding free energy” value is 0.01 kcal/mol.

In the case of AGTTTCACGTGAGTGG, the “relative binding free energy” value was 0.41 kcal/mol.

ATAGACACGTGTGGGG: the “relative binding free energy” value amounted to 0 kcal/mol.

As for ATTTACACGTGTGCGT, the “relative binding free energy” value was determined as 0.07 kcal/mol.

Consider AACGTCACGTGGATGT, for which the “relative binding free energy” value was -0.03 kcal/mol.

As for GGCGACACGTGTTAGG, the “relative binding free energy” value came to 0.07 kcal/mol.

Turning to AGGGGCACGTGGACGA, the “relative binding free energy” value is -0.15 kcal/mol.

On to TTTGGCACGTGTTGAG, for which the “relative binding free energy” value is -0.06 kcal/mol.

For CACGGCACGTGTGGGG, the “relative binding free energy” value is -0.05 kcal/mol.

As to ATGGACACGTGGATGA, the “relative binding free energy” value stood at 0.09 kcal/mol.

As for TGGAGCACGTGCGGTT, the “relative binding free energy” value is -0.17 kcal/mol.

As to TGCGGCACGTGAAAGT, the “relative binding free energy” value was 0.24 kcal/mol.

Turning to GTGAACACGTGGGGAC, the “relative binding free energy” value was -0.07 kcal/mol.

Consider ACGTTCACGTGCGGGG, for which the “relative binding free energy” value amounted to 0.08 kcal/mol.

For the sequence ACTTTCACGTGAGTGT, the “relative binding free energy” value turned out to be 0.21 kcal/mol.

Consider ATTTCCACGTGTGATG, for which the “relative binding free energy” value was 0.04 kcal/mol.

GGTGCCACGTGGTGGT: the “relative binding free energy” value was -0.14 kcal/mol.

Turning to ATTAGCACGTGGTTCT, the “relative binding free energy” value was -0.13 kcal/mol.

Turning to GGTTGCACGTGTGTGG, the “relative binding free energy” value was determined as 0.15 kcal/mol.

AGTTTCACGTGTGAAT: the “relative binding free energy” value was found to be 0.32 kcal/mol.

For GTATCCACGTGGTGTT, the “relative binding free energy” value was -0.07 kcal/mol.

Regarding GTGTGCACGTGGGGTC, the “relative binding free energy” value was -0.13 kcal/mol.

For the sequence GAATACACGTGTAGTT, the “relative binding free energy” value stood at 0.14 kcal/mol.

Regarding GGTTTCACGTGTAGGG, the “relative binding free energy” value was found to be 0.2 kcal/mol.

In the case of TCTCTCACGTGGTTTA, the “relative binding free energy” value was 0.3 kcal/mol.

In the case of ATCTGCACGTGAGGGG, the “relative binding free energy” value is 0.24 kcal/mol.
